In the supplement of paper PMC12217912:
This is one part of the list. The full chains were built here from the parent and the listed change. Values near 0.05 are background.

B1: TEV protease; numbered along this chain (parent)
chain: MGESLFKGPRDYNPISSSICHLTNESDGHTTSLYGIGFGPFIITNKHLFRRNNGTLVVQSLHGVFKVKDTTTLQQHLVDGRDMIIIRMPKDFPPFPQKLKFREPQREERICLVTTNFQTKSMSSMVSDTSCTFPSGDGIFWKHWIQTKDGQCGSPLVSTRDGFIVGIHSASNFTNTNNYFTSVPKNFMELLTNQEAQQWVSGWRLNADSVLWGGHKVFMVKPEEPFQPVKEATQL

Variants of: B1
Experiment: raw area under fraction-flipped curve 0-4 h after induction (AUC4h, not background-subtracted), DNA-recorder readout of cleavage of the substrate (dimensionless); higher = more cleavage of the substrate by the protease variant
Details: temperature: 34 °C; time window: 0-4 h after rhamnose induction
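Also: Bxb1 expression induced with 0.2% (w/v) L-rhamnose at OD600 near 0.5, cultures sampled hourly, flipped fraction per protease–substrate barcode pair counted by paired-end Illumina sequencing.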

Q146P
area with substrate CNLYFQS: 0.0483
area with substrate DNLYFQS: 0.0957
area with substrate GNLYFQS: 0.0754
area with substrate HNLYFQS: 0.0675
area with substrate LNLYFQS: 0.0691
area with substrate PNLYFQS: 0.0724
area with substrate TNLYFQS: 0.0625
area with substrate VNLYFQS: 0.0702
area with substrate WNLYFQS: 0.073

Q146V
area with substrate CNLYFQS: 0.0824
area with substrate DNLYFQS: 0.0735
area with substrate FNLYFQS: 0.068
area with substrate HNLYFQS: 0.0723
area with substrate INLYFQS: 0.0525
area with substrate LNLYFQS: 0.0537
area with substrate MNLYFQS: 0.0634
area with substrate TNLYFQS: 0.0679
area with substrate WNLYFQS: 0.0611

T147F
area with substrate CNLYFQS: 0.0647
area with substrate DNLYFQS: 0.0601
area with substrate FNLYFQS: 0.0618
area with substrate GNLYFQS: 0.0531
area with substrate HNLYFQS: 0.0599
area with substrate PNLYFQS: 0.034
area with substrate VNLYFQS: 0.0591
area with substrate WNLYFQS: 0.0567
area with substrate YNLYFQS: 0.0587

T147M
area with substrate CNLYFQS: 0.0443
area with substrate DNLYFQS: 0.0572
area with substrate GNLYFQS: 0.0556
area with substrate HNLYFQS: 0.0478
area with substrate LNLYFQS: 0.0858
area with substrate PNLYFQS: 0.0649
area with substrate WNLYFQS: 0.0512

T147R
area with substrate CNLYFQS: 0.0398
area with substrate DNLYFQS: 0.048
area with substrate GNLYFQS: 0.0533
area with substrate HNLYFQS: 0.0576
area with substrate INLYFQS: 0.0454
area with substrate LNLYFQS: 0.0602
area with substrate MNLYFQS: 0.0572
area with substrate NNLYFQS: 0.0445
area with substrate PNLYFQS: 0.0542
area with substrate SNLYFQS: 0.0618
area with substrate TNLYFQS: 0.0636
area with substrate WNLYFQS: 0.0665
area with substrate YNLYFQS: 0.0404

K148C
area with substrate CNLYFQS: 0.0944
area with substrate DNLYFQS: 0.0656
area with substrate GNLYFQS: 0.0557
area with substrate HNLYFQS: 0.0555
area with substrate INLYFQS: 0.0482
area with substrate KNLYFQS: 0.0706
area with substrate LNLYFQS: 0.0656
area with substrate MNLYFQS: 0.0565
area with substrate PNLYFQS: 0.0689
area with substrate TNLYFQS: 0.0582
area with substrate VNLYFQS: 0.0692
area with substrate WNLYFQS: 0.0495
area with substrate YNLYFQS: 0.0622

D149T
area with substrate CNLYFQS: 0.0556
area with substrate DNLYFQS: 0.0638
area with substrate FNLYFQS: 0.0536
area with substrate GNLYFQS: 0.0445
area with substrate HNLYFQS: 0.0535
area with substrate KNLYFQS: 0.0621
area with substrate LNLYFQS: 0.0545
area with substrate NNLYFQS: 0.0543
area with substrate PNLYFQS: 0.059
area with substrate RNLYFQS: 0.0659
area with substrate TNLYFQS: 0.0534
area with substrate VNLYFQS: 0.0645
area with substrate WNLYFQS: 0.0585

Q151N
area with substrate CNLYFQS: 0.0544
area with substrate DNLYFQS: 0.0617
area with substrate FNLYFQS: 0.0675
area with substrate HNLYFQS: 0.054
area with substrate INLYFQS: 0.0608
area with substrate KNLYFQS: 0.0474
area with substrate LNLYFQS: 0.06
area with substrate MNLYFQS: 0.0575
area with substrate PNLYFQS: 0.0609
area with substrate SNLYFQS: 0.0578
area with substrate VNLYFQS: 0.061
area with substrate WNLYFQS: 0.0554
area with substrate YNLYFQS: 0.05

Q151T
area with substrate CNLYFQS: 0.0701
area with substrate DNLYFQS: 0.0722
area with substrate FNLYFQS: 0.0847
area with substrate GNLYFQS: 0.0606
area with substrate HNLYFQS: 0.0788
area with substrate INLYFQS: 0.0511
area with substrate KNLYFQS: 0.0702
area with substrate LNLYFQS: 0.0779
area with substrate MNLYFQS: 0.0656
area with substrate NNLYFQS: 0.056
area with substrate PNLYFQS: 0.0621
area with substrate SNLYFQS: 0.075
area with substrate TNLYFQS: 0.0609
area with substrate WNLYFQS: 0.0551
area with substrate YNLYFQS: 0.0629

Q151Y
area with substrate CNLYFQS: 0.061
area with substrate DNLYFQS: 0.0539
area with substrate FNLYFQS: 0.0455
area with substrate GNLYFQS: 0.0614
area with substrate HNLYFQS: 0.0508
area with substrate INLYFQS: 0.0517
area with substrate KNLYFQS: 0.055
area with substrate LNLYFQS: 0.0737
area with substrate MNLYFQS: 0.0756
area with substrate NNLYFQS: 0.0693
area with substrate PNLYFQS: 0.0543
area with substrate QNLYFQS: 0.0616
area with substrate SNLYFQS: 0.0607
area with substrate TNLYFQS: 0.0681
area with substrate VNLYFQS: 0.0671
area with substrate WNLYFQS: 0.0534
area with substrate YNLYFQS: 0.0559

P155I
area with substrate CNLYFQS: 0.0546
area with substrate DNLYFQS: 0.0826
area with substrate FNLYFQS: 0.0572
area with substrate GNLYFQS: 0.0524
area with substrate HNLYFQS: 0.0649
area with substrate INLYFQS: 0.0512
area with substrate LNLYFQS: 0.0632
area with substrate MNLYFQS: 0.0719
area with substrate RNLYFQS: 0.0542
area with substrate SNLYFQS: 0.0487
area with substrate VNLYFQS: 0.0638
area with substrate WNLYFQS: 0.0602
area with substrate YNLYFQS: 0.0508

L156R
area with substrate CNLYFQS: 0.0504
area with substrate DNLYFQS: 0.0685
area with substrate FNLYFQS: 0.048
area with substrate GNLYFQS: 0.0461
area with substrate HNLYFQS: 0.0399
area with substrate KNLYFQS: 0.0383
area with substrate LNLYFQS: 0.0528
area with substrate NNLYFQS: 0.0581
area with substrate PNLYFQS: 0.05
area with substrate TNLYFQS: 0.0589
area with substrate WNLYFQS: 0.0489
area with substrate YNLYFQS: 0.0545

V157E
area with substrate CNLYFQS: 0.0526
area with substrate DNLYFQS: 0.0718
area with substrate FNLYFQS: 0.0555
area with substrate GNLYFQS: 0.0567
area with substrate HNLYFQS: 0.0603
area with substrate INLYFQS: 0.0629
area with substrate KNLYFQS: 0.0539
area with substrate LNLYFQS: 0.0487
area with substrate MNLYFQS: 0.0541
area with substrate PNLYFQS: 0.0372
area with substrate RNLYFQS: 0.0109
area with substrate SNLYFQS: 0.0457
area with substrate TNLYFQS: 0.0539
area with substrate WNLYFQS: 0.0483
area with substrate YNLYFQS: 0.0439

V157W
area with substrate CNLYFQS: 0.0481
area with substrate DNLYFQS: 0.0792
area with substrate FNLYFQS: 0.0519
area with substrate HNLYFQS: 0.0487
area with substrate INLYFQS: 0.0586
area with substrate KNLYFQS: 0.0672
area with substrate LNLYFQS: 0.0591
area with substrate NNLYFQS: 0.055
area with substrate PNLYFQS: 0.0484
area with substrate QNLYFQS: 0.069
area with substrate SNLYFQS: 0.0703
area with substrate TNLYFQS: 0.0485
area with substrate VNLYFQS: 0.0472
area with substrate WNLYFQS: 0.0527
area with substrate YNLYFQS: 0.0409
